# ± gives the standard deviation of the averaged measurements. Over roughly 33,000 sequences, “E-score (dimensionless, -0.5 to 0.5)” has its median near -0.046; the highest 2% begin near 0.36. The list shows a part of the results.
# Test system: T1, SpTbr T-box DNA-binding domain (GST fusion)
# T1 sequence: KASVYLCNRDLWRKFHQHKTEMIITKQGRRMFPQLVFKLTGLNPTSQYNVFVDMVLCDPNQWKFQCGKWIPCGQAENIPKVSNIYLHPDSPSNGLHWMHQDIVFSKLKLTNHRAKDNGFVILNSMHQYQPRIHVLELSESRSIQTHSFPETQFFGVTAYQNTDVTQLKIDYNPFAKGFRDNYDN
# Experiment: PBM E-score of 8-mer (E-score (dimensionless, -0.5 to 0.5)); Tbr is Tbrain of the sea star Patiria miniata (Pm) or the sea urchin Strongylocentrotus purpuratus (Sp); higher = stronger binding preference; most listed sequences are background and not binding sites
# Settings: the construct has about 5 more residues each side
# How it was run: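 Each ungapped 8-mer received an enrichment E-score from the Universal PBM Analysis Suite, averaged over duplicate arrays. The proteins were Tbr T-box DNA-binding domains, covering the whole T-box plus about five flanking residues, fused to GST and expressed in BL21 E. coli at 20 °C before glutathione affinity purification. Universal Agilent oligonucleotide arrays were made double-stranded by primer extension and incubated with 200 nM protein in PBS (pH 7.5). The arrays were then scanned and quantified, and every 8-mer was scored from probe intensities.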
row,Sequence,PBM E-score of 8-mer
1,ACAGGAGT,-0.0315 ± 0.053
2,GAGTCCCC,-0.196 ± 0.022
3,ATCCAATC,-0.07751 ± 0.00066
4,ACTTAGAA,-0.0461 ± 0.016
5,TACGCTGA,-0.147 ± 0.16
6,AGAAATAA,-0.0669 ± 0.051
7,AATGGTGA,0.102 ± 0.017
8,GCCATAGA,-0.0736 ± 0.036
9,CGGCGAAA,-0.2 ± 0.037
10,AATCTTAA,-0.0549 ± 0.021
11,CGGGCTGA,-0.144 ± 0.0076
12,AGACTTAA,-0.102 ± 0.14
13,CGCCTGTA,0.133 ± 0.039
14,ATCCGGAG,-0.172 ± 0.015
15,AAACAATG,0.128 ± 0.072
16,AATAAATG,-0.17 ± 0.029
17,GTGGGCTA,-0.101 ± 0.05
18,AGAAGTCG,0.0783 ± 0.05
19,CATGTCTA,0.01 ± 0.06
20,ACATGCAT,-0.0915 ± 0.029
21,CCCACCGG,-0.0702 ± 0.011
22,GTGGATGA,-0.139 ± 0.013

row,Sequence,PBM E-score of 8-mer
1,GAACCTGC,-0.126 ± 0.13
2,AAGCCGTC,0.0174 ± 0.019
3,ACTGTCAT,0.196 ± 0.032
4,AGATTTAC,-0.0921 ± 0.066
5,AAACAGGC,-0.0842 ± 0.026
6,GGAGAGAA,0.104 ± 0.023
7,AAGAACAA,-0.214 ± 0.045
8,ATGGTACC,-0.185 ± 0.049
9,CTTCGATC,-0.0691 ± 0.011
10,TGCACACA,0.207 ± 0.048
11,CACAACGG,0.193 ± 0.026
12,CATGGCCG,-0.188 ± 0.0012
13,ATGGAAGG,-0.128 ± 0.014
14,GATCCGTA,-0.0313 ± 0.14
15,CCTTGAGC,-0.00589 ± 0.043
16,CAAGAATA,-0.238 ± 0.077
17,ATCTACGC,0.0411 ± 0.049
18,TGGTAGAA,0.0235 ± 0.068
19,TAAAAGAA,0.00102 ± 0.069
20,CCCTACCG,-0.178 ± 0.038
21,CATACTGC,-0.0772 ± 0.055
22,CAGGCGGG,0.038 ± 0.026

row,Sequence,PBM E-score of 8-mer
1,ACAGTCAT,0.0191 ± 0.069
2,AACAGTCA,0.12612 ± 2.1e-05
3,ACCGCTCC,-0.236 ± 0.029
4,AGTGGCAC,0.296 ± 0.049
5,CGGTAACC,-0.124 ± 0.02
6,GTTCAAAC,-0.161 ± 0.083
7,ATGAAGAG,-0.199 ± 0.02
8,ATGACTCA,-0.0209 ± 0.0025
9,CTTCGAAA,-0.106 ± 0.022
10,AAGTGAGG,0.2725 ± 0.0021
11,CCTGGATC,-0.08879 ± 0.00069
12,CTGCGCAG,0.045 ± 0.1
13,ATCTTCTC,0.0149 ± 0.033
14,CTCACGCA,0.375 ± 0.022
15,CCATGCCC,-0.106 ± 0.013
16,ACCCGCAA,-0.0153 ± 0.03
17,ACTTGTTA,0.347 ± 0.035
18,CGAACCTA,-0.188 ± 0.054
19,ATTATAAC,0.0847 ± 0.081
20,CTGGGCCA,-0.18 ± 0.071
21,ATGCCAAC,0.124 ± 0.0029
22,CAACGATA,-0.0332 ± 0.025

row,Sequence,PBM E-score of 8-mer
1,AAATCTAG,-0.15 ± 0.11
2,GCGACTGA,-0.00539 ± 0.033
3,GTGTTAGA,0.384 ± 0.0066
4,AGGAGTCG,0.0301 ± 0.00098
5,CAGCACAG,-0.132 ± 0.045
6,AGATCCGC,-0.00131 ± 0.041
7,GCTGGCAA,0.104 ± 0.038
8,ATTAGTGC,0.063 ± 0.056
9,TCAGGCGA,0.126 ± 0.024
10,CACAGCGG,0.133 ± 0.013
11,AATAGGGA,-0.012 ± 0.089
12,GAACAATA,-0.0637 ± 0.052
13,ATTCCGTG,-0.1282 ± 0.00087
14,ACTATCTA,0.0219 ± 0.065
15,CAGAAGAG,-0.205 ± 0.0083
16,CCGTCGCG,0.109 ± 0.0088
17,AAATTTGT,0.169 ± 0.019
18,AGGAAGAT,-0.2357 ± 0.0023
19,GAGAAGAC,-0.0777 ± 0.061
20,GGTGTTTA,0.386 ± 0.015

# Source: the supplement of paper PMC4166925
